Data as given in the supplement of paper PMC3334620.
In all, about 33,000 sequences were measured (“E-score (-0.5 to 0.5)”: median about -0.012, highest 2% from about 0.29 on). This is one part of the list.

Each sequence was assayed against T1, Ybr033w (UniProt P38073) (assay: PBM E-score (8-mer binding enrichment) (E-score (-0.5 to 0.5)); higher = stronger / more preferred TF binding; most listed sequences are background and not binding sites). Settings: protein concentration: 200 nM; construct: GST-full length.
T1 sequence: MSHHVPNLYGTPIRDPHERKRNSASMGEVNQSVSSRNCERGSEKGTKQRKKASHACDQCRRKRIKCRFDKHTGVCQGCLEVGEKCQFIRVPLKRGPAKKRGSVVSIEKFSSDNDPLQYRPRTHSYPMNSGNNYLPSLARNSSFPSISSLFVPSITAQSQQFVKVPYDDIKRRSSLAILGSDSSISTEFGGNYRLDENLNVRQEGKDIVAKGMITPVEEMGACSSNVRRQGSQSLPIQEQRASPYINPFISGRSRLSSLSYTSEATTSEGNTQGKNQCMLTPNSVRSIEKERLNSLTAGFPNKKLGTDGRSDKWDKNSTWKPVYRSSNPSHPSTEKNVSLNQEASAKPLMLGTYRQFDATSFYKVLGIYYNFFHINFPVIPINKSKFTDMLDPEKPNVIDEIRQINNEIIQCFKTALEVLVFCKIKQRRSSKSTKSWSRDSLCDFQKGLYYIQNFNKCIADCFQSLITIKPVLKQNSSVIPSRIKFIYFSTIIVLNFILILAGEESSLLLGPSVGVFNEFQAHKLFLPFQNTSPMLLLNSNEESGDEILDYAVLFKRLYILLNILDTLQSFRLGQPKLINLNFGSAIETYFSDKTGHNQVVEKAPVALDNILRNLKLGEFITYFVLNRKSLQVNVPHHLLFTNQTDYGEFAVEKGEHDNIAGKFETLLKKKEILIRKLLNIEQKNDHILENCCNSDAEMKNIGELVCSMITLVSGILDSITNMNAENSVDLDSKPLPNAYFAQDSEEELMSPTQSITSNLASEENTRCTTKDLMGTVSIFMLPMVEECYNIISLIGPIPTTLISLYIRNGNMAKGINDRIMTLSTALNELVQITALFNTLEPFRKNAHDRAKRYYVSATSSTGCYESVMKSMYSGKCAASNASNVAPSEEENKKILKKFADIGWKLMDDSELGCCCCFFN
Summary of the method: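 Yeast transcription factors carrying a GST tag, as full-length proteins or DNA-binding domains, were produced by PURExpress in vitro transcription/translation. About 100-200 nM protein was applied to universal all-10-mer Agilent arrays, double-stranded by primer extension on fresh or once-stripped slides. Bound protein was detected with fluorescent anti-GST, and scans were normalised with masliner. The Universal PBM Analysis Suite gave each ungapped eight-base word, pooled with its reverse complement, an E-score, a modified Wilcoxon-Mann-Whitney statistic.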

Row | Sequence | PBM E-score
1 | ATCAACCA | 0.148
2 | GGTCCTAC | -0.226
3 | ATGATCAA | 0.166
4 | ATTGCCCG | -0.116
5 | ATTCTTGA | 0.17
6 | TATTGAAA | 0.264
7 | GCTGATCA | 0.0605
8 | CATGGCAG | -0.0545
9 | AGCGCTGA | -0.0432
10 | CCGTTCTA | 0.135
11 | CCGCAACA | -0.0261
12 | CGCATCAG | -0.0368
13 | ATATCACC | 0.272
14 | ACGGGTCG | -0.0641
15 | TGAAGGAA | 0.211
16 | CGCGCCAA | 0.0577
17 | ATTTAATG | 0.244
18 | AGAGCCGC | -0.162
19 | ACGAAGCT | 0.142
20 | ATGTAGCC | -0.24
21 | ACATTGGA | -0.0326
22 | AAGCAACG | 0.0559
23 | ATGACTGA | 0.0565
24 | AACCTAGA | 0.00973
25 | GAACCGCA | 0.0878

Row | Sequence | PBM E-score
26 | AATGCTAC | 0.217
27 | CTAGTGGA | -0.011
28 | GTCTCTTA | 0.121
29 | CGCATTCA | 0.158
30 | GCGCCCAC | -0.166
31 | AGAGGGCA | -0.242
32 | ACGAAACT | 0.0994
33 | CGCAGCGC | -0.211
34 | ATATACGA | -0.0313
35 | ATTCGTCC | 0.182
36 | AAAGTGAG | 0.0784
37 | ACATGTCT | -0.0446
38 | ATAGCGAC | -0.115
39 | AAGTTGGC | -0.0193
40 | ATCAGGGA | -0.155
41 | GCTGTTCC | -0.207
42 | ATGCTATG | 0.159
43 | CCGGAGAA | 0.271
44 | GTCCGTAA | -0.036
45 | ATCTAGTA | 0.246
46 | GCCATCCA | -0.168
47 | CGTGTGAC | -0.0594
48 | GCACTCGA | -0.0311
49 | CATAAGCG | -0.0755
50 | ACCAGTTC | -0.139

Row | Sequence | PBM E-score
51 | ACTTATTA | 0.176
52 | CGAATAGA | -0.0851
53 | CCTTGGCG | -0.278
54 | GAGCTTAA | 0.108
55 | AGGAGTAA | 0.104
56 | CCGGTACG | -0.229
57 | CTTCCACC | -0.158
58 | GATTCTTA | 0.248
59 | AATGTTGA | -0.00763
60 | TGATAGAA | 0.00598
61 | AAAGGCTT | -0.00332
62 | AAGTGCTG | 0.0349
63 | AGGTCTAC | 0.0604
64 | CGCTATCC | -0.0504
65 | GTATATTA | 0.257
66 | ACTCATTC | 0.245
67 | TCTCCAAA | 0.053
68 | GATTCGTA | 0.127
69 | CTGTCCTA | -0.0252
70 | AACAACCC | 0.0694
71 | ATTCGTGC | 0.186
72 | CATCGAAG | 0.0388
73 | AATTCTGG | 0.111
74 | CGATTGCA | 0.109
75 | ACTCTAAG | -0.157

Row | Sequence | PBM E-score
76 | CCCCTTAG | -0.364
77 | ACTAGTCG | -0.166
78 | ATCCCGTA | 0.19
79 | AGGAGCTA | -0.178
80 | AGTCCAGA | -0.0236
81 | CGGAGATA | 0.123
82 | AAGGGATC | 0.0741
83 | CAGCACCG | -0.319
84 | ACAAATAC | 0.234
85 | CGTCTCCA | 0.0883
86 | ATCGGGAC | -0.169
87 | TAGGGTGA | 0.113
88 | TCCTCTAA | 0.0386
89 | TAACCCGA | -0.0421
90 | TACTACGA | 0.212
91 | CCAGACAA | -0.207
92 | CTACCCTA | -0.106
93 | CCGAGTAA | 0.0976
94 | CTGAAGAC | -0.157
95 | GACTGCAC | -0.221
96 | ACGACTTA | -0.0969
97 | GGTCACAC | -0.191
98 | ACGGCCTC | -0.177
99 | ACTTGCTG | 0.0666
100 | GGCATGCA | -0.176

Row | Sequence | PBM E-score
101 | CTCATTAC | 0.169
102 | TCCGCCAA | 0.00403
103 | GTTTACAA | 0.243
104 | ATGGACCC | -0.193
105 | ATTATACG | 0.242
106 | AACCCTAC | -0.159
107 | GGCTCGTA | -0.135
108 | CCCACCCC | -0.0296
109 | AGCCTCTA | -0.114
110 | CAGAGTGC | -0.126
111 | AGATATTC | 0.267
112 | AATAAACG | 0.163
113 | ACATCTTG | 0.00925
114 | AGGAGCAC | -0.115
115 | AGGCCAAG | -0.273
116 | CATGTGTA | 0.0292
117 | CGAATGCA | -0.00613
118 | AACAGGGA | 0.191
119 | CCGCGTCG | -0.0474
120 | AAGAGGGG | -0.226
121 | GCTTTAAA | -0.00436
122 | GATAATAC | 0.171
123 | ACGCAGGA | -0.0118
124 | AATGTAAG | 0.288
125 | ATACATAT | 0.261

Row | Sequence | PBM E-score
126 | ACCCAATA | -0.0228
127 | ATAACATG | 0.184
128 | CAACACAA | 0.0806
129 | AGCGCTGC | -0.219
130 | AATGGGCT | -0.12
131 | TGGGGTAA | 0.0198
132 | ACGCCCTG | -0.16
133 | CATGCGCA | 0.0557
134 | GCGCGGCC | -0.0352
135 | AACCGGAA | 0.157
136 | CCGACGCA | -0.226
137 | ACGAAATC | 0.149
138 | AATTCAAT | 0.173
139 | ATCAGCAC | 0.109
140 | CAATCGCC | 0.00795
141 | AGCGATCG | -0.00462
142 | GAACATGC | -0.076
143 | AGTCGAAC | 0.0638
144 | CGCAAATA | 0.208
145 | CCCTCACC | -0.265
146 | GATTTCAC | 0.0763
147 | GGGCGTCA | -0.075
148 | GCCGCCAA | -0.283
149 | GCATCCAA | -0.0905
150 | CGACTACC | -0.107

Row | Sequence | PBM E-score
151 | ATGCGACC | -0.00341
152 | ATGGTTAA | 0.0444
153 | CTTGTTAC | 0.0366
154 | AAGGCCTT | -0.326
155 | CCGTCGCA | -0.00392
156 | CAATACGG | 0.023
157 | AGCAAGTG | 0.0477
158 | CATTCGGG | -0.151
159 | ATTGGAGG | -0.0464
160 | CATGAAGG | 0.11
161 | AATTTATA | 0.257
162 | CCGTCTCA | 0.11
163 | GCGCGTCA | 0.0339
164 | ACTAGCTC | 0.012
165 | GAATAAAC | 0.142
166 | ATGCCAAT | -0.0217
167 | AGCGTCCC | -0.172
168 | ATCACCTC | -0.0556
169 | GTAGGGGA | -0.183
170 | ACGCGACT | -0.174
171 | ACGAGGAA | 0.0671
172 | GCGTGGTA | -0.114
